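Exposure lasted 48 hours, with cells grown in 96-well plates and compounds tested at five concentrations. The concentration for 50% growth inhibition is given as GI50.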 Calls of active or inactive are those of the source. Cut-off read from the data, not from the text of the source: active = GI50 up to about 1.1 µM and inactive = higher.
tested on: NCI-H322M; assay: DTP human tumour cell line panel, 48 h

| Compound | GI50 |
| --- | --- |
| COc1cc(OC)cc(-c2nc(O)c3ccccc3n2)c1 | inactive: > 100 µM |
| CN(C)c1cccc(-c2cc(O)c3ccccc3n2)c1 | inactive: 31.4 µM |
| COC(=O)C1CCC(=O)N1C(c1ccc(OC)cc1)c1cc(OC)c(OC)c(OC)c1 (configuration not stated) | active: 0.525 µM |
| CSc1ccc(NC(=O)C2CCCCC2C(=O)O)cc1 (configuration not stated) | inactive: > 100 µM |
| Cc1ccc(NC(=S)SCCC(=O)O)cc1 | inactive: > 100 µM |
| O=C(O)CCSC1=NCCN1 | inactive: > 100 µM |
| CCOC(OC1=CCCC1)C(C)[Se]c1ccccc1 (configuration not stated) | inactive: > 100 µM |
| C[n+]1cccc(/C=C/c2ccc3cccc(O)c3n2)c1 | inactive: > 100 µM |
| FC1(F)[Se]C2C3CCC(C3)C2C1(F)F (configuration not stated) | inactive: 65.5 µM |
| Cc1ccc(OCC2OC(n3cnc4nc(Cl)nc(Cl)c43)CC2Oc2ccc(C)cc2)cc1 (configuration not stated) | inactive: 15.6 µM |
| CC(C)Cn1cnnc1NS(=O)(=O)c1cc(C(=O)NN)c(Cl)cc1S | inactive: > 10 µM |
| COC(=O)/C=C1\C(CO[Si](C)(C)C(C)(C)C)OC(n2ccc(=O)[nH]c2=O)C1O (configuration not stated) | inactive: 17.3 µM |
| CCCC(=O)Oc1ccc2c(C)cc(=O)oc2c1OC(=O)CCC | inactive: 34.1 µM |
| N#Cc1ccnc(C(=O)N2CCCC2C(=O)O)c1 (configuration not stated) | inactive: > 100 µM |
| O=C(/C=C/c1cccc([N+](=O)[O-])c1)c1ccc([N+](=O)[O-])cc1 | inactive: > 100 µM |
| Nc1n/c(=N\c2ccccc2)ss1 | inactive: > 100 µM |
| O=C1C2Cc3ccccc3CN2C(=O)N1CCN1CCCC1 (configuration not stated) | inactive: > 100 µM |
| O=C1Nc2ccccc2/C1=N/Nc1ncccc1[N+](=O)[O-] | inactive: 14 µM |
| CCc1cccc(C)c1N1C(=O)C(=O)C(c2nc3ccccc3o2)C(=O)C1=O | inactive: > 100 µM |
| CC1(SCC(N)C(=O)O)CC(=O)NC1=O (configuration not stated) | inactive: > 100 µM |
| CN1CCN=C1c1nnn(-c2ccc([N+](=O)[O-])cc2)c1-c1ccccc1 | inactive: > 100 µM |
| CCCCC(N)CSSCC(N)CCCC (configuration not stated) | inactive: 71.1 µM |
| CCCCCCCCCc1cccc(N2C(N)=NC(N)=NC2(C)C)c1 | active: < 0.0161 µM |

| Compound | GI50 |
| --- | --- |
| COc1ccc2c(-c3ccc(O)cc3)c(Oc3ccc(Cl)cc3)c(=O)oc2c1 | inactive: 6.56 µM |
| [O-][S+]1c2ccc(Cl)cc2CC(SSC2Cc3cc(Cl)ccc3[S+]([O-])c3ccccc32)c2ccccc21 (configuration not stated) | inactive: > 100 µM |
| OCC(CO)C1c2cccc3ccc4cccc1c4c23 | inactive: > 100 µM |
| CC1(C)CC(/C=C2/OC(=O)c3ccccc32)=C(C#N)C(=O)O1 | inactive: > 100 µM |
| CC(=N/NC(=S)N1CCCCC1)/C(C)=N\NC(=S)N1CCCCC1 | inactive: 1.75 µM |
| CNCCNc1ccc2c3c(nn2CCNCCO)-c2c(O)ccc(O)c2C(=O)c13 | active: 0.343 µM |
| C=C1C(=O)O[C@H]2C1C[C@H](O)/C(C)=C/CC[C@@]1(C)O[C@H]21 (some centres not stated) | inactive: 17.9 µM |
| CN(CCCN1C(=O)c2cccc3cc([N+](=O)[O-])cc(c23)C1=O)CCN(C)CCCN1C(=O)c2cccc3cc([N+](=O)[O-])cc(c23)C1=O | inactive: 27.7 µM |
| COc1cc(C(=O)Nc2cccc3ccccc23)c(Br)c(OC)c1OC | inactive: > 100 µM |
| CCOP(=O)(OCC)OC1CC(n2cnc3c(N(CC)CC)ncnc32)OC1CO[Si](C)(C)C(C)(C)C (configuration not stated) | inactive: 18.5 µM |
| CC(=O)OCc1cc2c(s1)C(=O)c1sccc1C2=O | active: 0.617 µM |
| Cc1cn(Cc2cccc(C3=NCCCN3)c2)c(=O)n(Cc2cccc(C3=NCCCN3)c2)c1=O | inactive: > 100 µM |
| NC(Cc1c[nH]c2cc([N+](=O)[O-])ccc12)C(=O)O (configuration not stated) | inactive: > 100 µM |
| CC(=O)Nc1ccc(C(O)/C(=N/N)c2nc3ccc(Cl)cc3nc2O)cc1 (configuration not stated) | inactive: > 100 µM |
| Nc1nc2c(ncn2Cc2ccc(CO)cc2)c(=O)[nH]1 | inactive: > 100 µM |
| COc1ccc([C@@H]2C[C@@H]3C(=O)OC(=O)[C@@H]3c3c2c2ccccc2n3C)cc1 | inactive: > 100 µM |
| C[C@]12CC[C@H](O)CC1=CC[C@@H]1[C@@H]2CC[C@]2(C)C(=O)/C(=C/c3ccc([N+](=O)[O-])cc3)C[C@@H]12 | inactive: 5.14 µM |
| Cc1cn(CC2=NCCN2)c(=O)[nH]c1=O | inactive: > 100 µM |
| COC1/C=C\C=C(/C)C(=O)NC2=CC(=O)C(O)=C(CC(C)CC(OC)C(O)C(C)/C=C(\C)C1OC(N)=O)C2=O (configuration not stated) | inactive: 9.89 µM |
| CC(C)OP(=O)(c1ccccc1)c1ccc2c(c1)OCCOCCOCCOCCO2 (configuration not stated) | inactive: > 100 µM |
| Cc1cc(Cl)cc2c1NC(=O)C2=O.O=C(c1ccccc1)C(F)(F)F | inactive: > 100 µM |
| CCOC1=C2C(=O)OC(=O)C2C2CCCCC2=C1 (configuration not stated) | inactive: > 100 µM |
| CC(C)COC(c1ccc2c(c1)OCO2)C(C)Br (configuration not stated) | inactive: 36.3 µM |

| Compound | GI50 |
| --- | --- |
| OC(/C(=N/c1ccccc1)c1ccccc1)c1ccccc1 (configuration not stated) | inactive: 15.5 µM |
| Cc1ccc(-c2nc3n(c2/C=N\N=C(N)N)CCS3)cc1 | inactive: 17.1 µM |
| CN(C)C(=O)Nc1cc2c3c(c1)CCCN3CCC2 | inactive: > 10 µM |
| CSc1nc(C#N)c(/N=C\N(C)C)n1C | inactive: > 100 µM |
| OCC(O)COc1ccc(Br)cc1 (configuration not stated) | inactive: > 100 µM |
| C1=CC=C2NCCC/N=C3/C=CC=CC=C3NCCC/N=C\2C=C1 | inactive: > 100 µM |
| c1ccc(C2CC(c3ccc4ccccc4c3)=Nc3ccccc3S2)cc1 (configuration not stated) | inactive: 20.9 µM |
| CC(C)[C@](O)(C(=O)OCC1CC[N+]2([O-])CC[C@@H](O)C12)[C@H](C)O (some centres not stated) | inactive: > 375 µM |
| C/C=C/c1cc2c(c(=O)o1)C(=O)[C@@H](O)[C@H](C)O2 | inactive: 22 µM |
| CN(C)C(=S)/N=c1\ssc(=S)n1Cc1ccccn1 | inactive: > 22.5 µM |
| COc1cc(N(CCC#N)CCC#N)ccc1C(/N=N/c1cccc([N+](=O)[O-])c1)=N\NC(=O)c1ccc(C)cc1 | inactive: > 100 µM |
| O=C(/C(Cl)=C/c1ccccc1)c1ccccc1 | inactive: 15.2 µM |
| CC(=O)n1c2ccccc2c2nc3nc(Oc4ccc(C)cc4)c4ccccc4c3cc21 | inactive: > 100 µM |
| C1=CC=C2NCCCCCC/N=C3\C=CC=CC=C3NCCc3cccc(c3)CC/N=C/2C=C1 | inactive: 21.1 µM |
| O=C1OC[C@@H]2Cc3c([nH]c4ccccc34)[C@@H](c3ccc(O)cc3)N12 | inactive: 32.3 µM |
| Nc1ccn(C2CC3OCC3O2)c(=O)n1 (configuration not stated) | inactive: 96.6 µM |
| CCOC(=O)CC[C@@H](NC(=O)c1ccc(N[C@@H]2c3cc4c(cc3C(c3cc(OC)c(O)c(OC)c3)C3C(=O)OC[C@@H]32)OCO4)cc1)C(=O)OCC (some centres not stated) | active: 0.181 µM |
| CC1OC2=N[C@@H]1C(=O)N[C@@H](Cc1ccccc1)C1=N[C@H](C(=O)N[C@@H](Cc3ccccc3)C3=N[C@H](C(=O)N[C@H]2Cc2ccccc2)C(C)O3)C(C)O1 (some centres not stated) | inactive: 60.8 µM |
| COc1cc(C2c3cc4c(cc3[C@@H](Nc3ccc(F)cc3)C3COC(=O)[C@H]23)OCO4)cc(OC)c1O (some centres not stated) | inactive: 11.2 µM |
| COc1c(O)cc(/C=C/c2cc(O)cc3c2[C@@]2(C(=O)O3)c3c(O)cc(O)cc3OC2c2cccc(O)c2)cc1O (some centres not stated) | inactive: > 100 µM |
| Cc1cc(/N=N/c2ccccc2C)ccc1N | inactive: 29.5 µM |

Source: ChEMBL document CHEMBL1201862, “PubChem BioAssay data set” (2004)
